# According to the supplement of paper PMC9135407:
# “And” between values parts separate entries of the source, which are not always exact repeats. Identical values can stand only once. Counter-ions that a name gives are not always drawn. The campaign covered roughly 5,800 compounds. About 620 (11%) showed activity.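 How the source made its calls: active = score above a cut-off or among the top three wells of a plate; in these data no inactive exceeds 0.85.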 The entries are a selection whose mix differs from that of the whole data set.
# Tested on: primary human hepatic stellate cells (donor 1)
# Experiment: scaled lipid accumulation score (0 = DMSO-like, 1 = nortriptyline-like); higher = stronger HSC inactivation (lipid re-accumulation), active = hit call of the paper
# Settings: 48 h
# Experimental: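 Primary lipid accumulation screen in primary human hepatic stellate cell myofibroblasts (donor 1, passage 8) in 384-well plates. 100 nL of library compound was pin-transferred into 30 µL medium in duplicate, and cells were treated for 48 h. The 'Scaled' score combines distance from plate baseline, toxicity and reproducibility penalties, and is normalised to nortriptyline (positive) and DMSO (negative) controls on each plate. A hit is defined as scaled >0.85 or among the top 3 wells per plate.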
# [1] = library stock concentration: 3.33 mM
# [2] = library stock concentration: 10 mM
# [3] = library stock concentration: 5.9 mM
# [4] = library stock concentration: 1 mM
compound,measurement,setting,value
Cc1[nH]c(=O)c(C#N)cc1-c1ccncc1 [Milrinone],scaled lipid accumulation score,,inactive: ≤ 0
same,scaled lipid accumulation score,[1],inactive: 0.027
same,scaled lipid accumulation score,library stock concentration: 9.5 mM,inactive: 0.029
same,scaled lipid accumulation score,[2],inactive: ≤ 0 and inactive: 0.237
same,scaled lipid accumulation score,library stock concentration: 23.7 mM,inactive: ≤ -0.016
CC(C)[C@H](CO)Nc1nc(Nc2cccc(Cl)c2)c2ncn(C(C)C)c2n1 [Purvalanol A],scaled lipid accumulation score,[1],inactive: ≤ 0
same,scaled lipid accumulation score,[2],inactive: 0.148
CCNC(=O)C1=C(c2ccc(OC)cc2)C(=C2C=C(Cl)C(O)=CC2=O)NN1,scaled lipid accumulation score,[2],active: 0.897
CCCOc1ccc(/C=C2/SC(=O)NC2=O)cc1 [PIM1/2 Kinase Inhibitor VI],scaled lipid accumulation score,[1],inactive: 0.001
O=C(Nc1ccccc1)c1ccccc1O [Salicylanilide],scaled lipid accumulation score,[1],inactive: ≤ 0
same,scaled lipid accumulation score,library stock concentration: 9.4 mM,inactive: 0.019
same,scaled lipid accumulation score,[2],inactive: 0.041
NC(=O)N1c2ccccc2CC(O)c2ccccc21 (configuration not stated) [Licarbazepine],scaled lipid accumulation score,[2],inactive: 0.008
COc1cc(/C=C/C(=O)N2CCC=CC2=O)cc(OC)c1OC [Piperlongumine],scaled lipid accumulation score,,inactive: 0.77
CN(C)c1ccc2nc3ccc(=[N+](C)C)cc-3sc2c1 [Methylene blue],scaled lipid accumulation score,[3],inactive: 0.252
COc1ccc(C2C(=O)c3ccccc3C2=O)cc1 [Anisindione],scaled lipid accumulation score,library stock concentration: 7.9 mM,inactive: ≤ 0
same,scaled lipid accumulation score,[2],inactive: ≤ 0
CCc1nc(-c2cccc(C)c2)c(-c2ccnc(NC(=O)c3ccccc3)c2)s1,scaled lipid accumulation score,library stock concentration: 80 uM,inactive: 0.072
same,scaled lipid accumulation score,library stock concentration: 400 uM,inactive: ≤ 0 and inactive: ≤ -0.005
same,scaled lipid accumulation score,library stock concentration: 2 mM,inactive: ≤ 0 and inactive: ≤ -0.005
same,scaled lipid accumulation score,[1],inactive: ≤ 0
same,scaled lipid accumulation score,[2],inactive: ≤ 0 and inactive: 0.036 and inactive: 0.188
Cc1cccc(C)c1NC(=O)C1CCCCN1C (configuration not stated),scaled lipid accumulation score,[2],inactive: ≤ 0
Cc1cccc(C)c1NC(=O)C1CCCCN1C (configuration not stated) [Mepivacaine HCl],scaled lipid accumulation score,[1],inactive: 0.001
same,scaled lipid accumulation score,[2],inactive: 0.079
Cc1cccc(C)c1NC(=O)C1CCCCN1C (configuration not stated) [Mepivacaine hydrochloride],scaled lipid accumulation score,library stock concentration: 7.1 mM,inactive: 0.247
same,scaled lipid accumulation score,[2],inactive: 0.119
CN1C(C(=O)Nc2ccccn2)=C(O)c2sccc2S1(=O)=O [Tenoxicam],scaled lipid accumulation score,,inactive: ≤ 0
same,scaled lipid accumulation score,[1],inactive: ≤ 0
same,scaled lipid accumulation score,[3],inactive: ≤ 0
same,scaled lipid accumulation score,[2],inactive: ≤ 0
N#Cc1ccc2[nH]cc(CCCCN3CCN(c4ccc5oc(C(N)=O)cc5c4)CC3)c2c1 [Vilazodone HCl],scaled lipid accumulation score,[1],inactive: 0.512
CC(C)OC(=O)CCC/C=C\C[C@@H]1[C@@H](/C=C/[C@@H](O)CCc2ccccc2)[C@H](O)C[C@@H]1O [17-phenyl trinor Prostaglandin F2.alpha. isopropyl ester],scaled lipid accumulation score,[4],inactive: ≤ 0
CC(=O)Oc1ccc2c(c1)CC[C@@H]1[C@@H]2CC[C@]2(C)[C@@H](OC(C)=O)CC[C@@H]12 [Estradiol diacetate],scaled lipid accumulation score,[2],inactive: ≤ 0
Cc1ncc([N+](=O)[O-])n1CC(O)CCl (configuration not stated) [Ornidazole],scaled lipid accumulation score,,inactive: 0.004
same,scaled lipid accumulation score,[1],inactive: ≤ 0
same,scaled lipid accumulation score,library stock concentration: 9.1 mM,inactive: ≤ 0
same,scaled lipid accumulation score,[2],inactive: 0.055
Cc1ncc([N+](=O)[O-])n1CC(O)CCl (configuration not stated),scaled lipid accumulation score,[2],inactive: ≤ 0
O=C(CCCC[C@@H]1SC[C@@H]2NC(=O)N[C@@H]21)NCCCC[C@H](NC(=O)CCN1C(=O)C=CC1=O)C(=O)O [3-(N-Maleimidopropionyl)-biocytin],scaled lipid accumulation score,[4],inactive: ≤ 0
C[C@]12CC[C@H]3C(=CCc4cc(O)ccc43)[C@@H]1CCC2=O [Equilin],scaled lipid accumulation score,,inactive: 0.045
same,scaled lipid accumulation score,library stock concentration: 7.5 mM,inactive: ≤ 0
same,scaled lipid accumulation score,[2],inactive: 0.026
C[C@]12C=CC(=O)C=C1CC[C@@H]1[C@@H]2[C@@H](O)C[C@@]2(C)[C@H]1CC[C@]2(O)C(=O)COP(=O)(O)O,scaled lipid accumulation score,[2],inactive: ≤ 0
N=C(N)N [Guanidine HCl],scaled lipid accumulation score,[1],inactive: ≤ 0
same,scaled lipid accumulation score,[2],inactive: ≤ -0.001
N=C(N)N,scaled lipid accumulation score,[2],inactive: ≤ 0
"NC(N)=NCCNS(=O)(=O)c1cccc2cnccc12 [HA 1004, Dihydrochloride]",scaled lipid accumulation score,[1],inactive: ≤ 0
NC(N)=NCCNS(=O)(=O)c1cccc2cnccc12,scaled lipid accumulation score,library stock concentration: 17 mM,inactive: 0.047
C=C[C@H]1CN2CC[C@H]1C[C@@H]2[C@@H](O)c1ccnc2ccc(OC)cc12 [Quinidine gluconate],scaled lipid accumulation score,[2],inactive: 0.228
C=C[C@H]1CN2CC[C@H]1C[C@@H]2[C@@H](O)c1ccnc2ccc(OC)cc12 [Quinidine hydrochloride monohydrate],scaled lipid accumulation score,,inactive: 0.282
same,scaled lipid accumulation score,[2],inactive: 0.436
C=C[C@H]1CN2CC[C@H]1C[C@@H]2[C@@H](O)c1ccnc2ccc(OC)cc12 [Quinidine sulfate],scaled lipid accumulation score,[2],inactive: 0.364
CNC(=O)[C@H]1O[C@@H](n2cnc3c(NCc4cccc(I)c4)ncnc32)[C@H](O)[C@@H]1O,scaled lipid accumulation score,[2],inactive: 0.186 and inactive: 0.035
CCCCC[C@H](O)/C=C/[C@@H]1[C@H]2C[C@@H](CCCCC(=O)O)O[C@H]2C[C@H]1O [6.alpha.-Prostaglandin I1],scaled lipid accumulation score,[4],inactive: 0.002
c1ccc(CN(CC2=NCCN2)c2ccccc2)cc1 [Antazoline hydrochloride],scaled lipid accumulation score,,inactive: 0.544
same,scaled lipid accumulation score,[2],inactive: 0.11
c1ccc(CN(CC2=NCCN2)c2ccccc2)cc1 [Antazoline HCl],scaled lipid accumulation score,[1],inactive: ≤ 0
same,scaled lipid accumulation score,[2],inactive: 0.363
c1ccc(CN(CC2=NCCN2)c2ccccc2)cc1 [Antazoline phosphate],scaled lipid accumulation score,[2],inactive: 0.143
CN(C)Cc1ccc(S(=O)(=O)n2ccc(/C=C/C(=O)NO)c2)cc1 [Resminostat],scaled lipid accumulation score,[1],inactive: 0.499
same,scaled lipid accumulation score,[2],inactive: 0.806
Nc1ncnc2n[nH]c(Nc3ccc(F)cc3)c12,scaled lipid accumulation score,[4],inactive: ≤ 0
same,scaled lipid accumulation score,[1],inactive: ≤ -0.009
same,scaled lipid accumulation score,[2],inactive: 0.176 and inactive: ≤ 0 and inactive: ≤ -0.001
CC[C@H](C)C[C@H](C)CCCCCCCCC(=O)N[C@H]1C[C@@H](O)[C@@H](NCCN)NC(=O)[C@@H]2[C@@H](O)CCN2C(=O)[C@H]([C@H](O)CCN)NC(=O)[C@H]([C@H](O)[C@@H](O)c2ccc(O)cc2)NC(=O)[C@@H]2C[C@@H](O)CN2C(=O)[C@H]([C@@H](C)O)NC1=O [Caspofungin Acetate],scaled lipid accumulation score,[1],inactive: ≤ 0
same,scaled lipid accumulation score,[2],inactive: ≤ 0
